± gives the standard deviation of the averaged measurements. This is one part of the list.
These sequences were tested on PfAP2-LT AP2 domain (GST-tagged) (assay: gcPBM binding intensity (ln(normalized median fluorescence intensity)); higher = stronger DNA binding).
How it was run: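 GST-tagged P. falciparum DNA-binding domains produced in E. coli were incubated for 1 h on an Agilent 4 × 180k array of primer-extended double-stranded 36-bp intergenic genomic probes with negative controls. Binding intensity is the highest Masliner-normalised natural-log median intensity across replicate spots of either probe orientation, with bound protein detected by Alexa488 anti-GST antibody at 488 nm.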

| Sequence | gcPBM binding intensity (ln) |
| --- | --- |
| ATATATAATATATGTGGTACGCAAAATATTATATTA [XGTACX_site4969] | 8.96 ± 0.38 |
| TTTATATTATAATATAATAATGATCTTAATTTTTTT [XGTACX_negctrl_site100] | 8.27 ± 0.55 |
| TCAATATACCAAAAATGTACAAAAAATAAACAATAT [XGTACX_site8251] | 9.03 ± 0.43 |
| GAACATTTCACATGGTGTACTCTCTTTTTCAAATAA [XGTACX_site1632] | 8.63 ± 0.42 |
| TTTATTTTACAAAAAAGTACAAGAAGAAATATCAAT [XGTACX_site7812] | 8.49 ± 0.38 |
| ATATTTAGAATGTTCCTACACACCAAATTTAAGTGG [CACACA_site2346] | 8.89 ± 0.47 |
| TATTAAAAGTAAAAAACACACATGGATAAATACATA [CACACA_site6048] | 9.01 ± 0.53 |
| TATTCGAAAGAATAGGCATGCAAACATATCTTATTA [TGCATGCA_site147] | 9.1 ± 0.61 |
| TATTATTTATTATATGCACACATCGAACTATTATTT [CACACA_site2544] | 9.2 ± 0.4 |
| TTCTATATTATATATGCATGTGTTATTCTTATTTTC [TGCATGCA_site92] | 9.07 ± 0.57 |
| ATATAATATTAGTGCACACACAAAAATGTACTAAAC [CACACA_site632] | 9.33 ± 0.31 |
| AAACATATAAATCACGGTACACATTATTGAAAGTGT [XGTACX_site2966] | 9.11 ± 0.47 |
| ATAAAGAAACATATATGTACTTATATATATATATAT [XGTACX_site5625] | 9.15 ± 0.3 |
| ATATATATTATATGCACACTTATATTTCATTAGATT [CACACA_site2599] | 8.95 ± 0.38 |
| ATTGTATCTGTATATGCACACAATATCTGTACTTCT [CACACA_site5445] | 9.38 ± 0.39 |
| TCATCATATTATATATGTACATATATAATAATTTAT [XGTACX_site1625] | 8.62 ± 0.42 |
| AAATAATTAAAAAAAAGTACACATGTGACTACATAT [XGTACX_site8767] | 8.93 ± 0.35 |
| TTATAATTTTTTTTTGCATGTGGGTTTTTTTTTGTT [TGCATGCA_site968] | 8.96 ± 0.38 |
| TATATATATGTATACACACATACAAATATGTAAAAA [CACACA_site3720] | 9.02 ± 0.39 |

| Sequence | gcPBM binding intensity (ln) |
| --- | --- |
| AAATAAAGCACACCGACACACACATATATATATATA [CACACA_site8256] | 10.03 ± 0.057 |
| TTTCAATACTGAAACTGTACTTGTTTTACTTCTATT [XGTACX_site5924] | 8.92 ± 0.58 |
| CGAAATCATATGTACACACACATATATATATATATA [CACACA_site2151] | 10.1 ± 0.18 |
| ATAATTCTAAATAAATGTACACACAAAAATAAATGT [XGTACX_site3547] | 9.07 ± 0.4 |
| GTTAATTGAAGATTCACACATAAATATATATATAAT [CACACA_site5482] | 8.7 ± 0.38 |
| TAACGCATGAATATAATATATATATATATAAAAATA [GTGCAC_negctrl_site218] | 8.89 ± 0.47 |
| ATTGTATGCACGTCTGCACACTTTTTTTTTTTTTTT [CACACA_site2082] | 8.94 ± 0.51 |
| TATAGATGTATGTACATACACACATATATAAATAAA [CACACA_site1789] | 9.14 ± 0.39 |
| TGTTAATTTATATTATGTACTTATAATTATCGTTTG [XGTACX_site1032] | 8.93 ± 0.41 |
| TACACCCACCAACACACACACACACCCAAAAAAAAA [CACACA_site498] | 10.1 ± 0.14 |
| AACTTTATACTTTTTTGTACTTAACCCTTACATTTT [XGTACX_site5798] | 9.12 ± 0.42 |
| TTTATGAAACAGTGCACACATAAAAATATATACATA [CACACA_site2992] | 9.09 ± 0.4 |
| TTTATATATTTATTCACACATATAATATTCCGTCGT [CACACA_site6120] | 8.99 ± 0.45 |
| GTAAGATTTCTTGTTGCATGCGGTAAAAAGTAAAAT [TGCATGCA_site469] | 8.87 ± 0.38 |
| TAGATAAATGGGTATACACACATATACATAAATATA [CACACA_site375] | 9.01 ± 0.46 |
| AAAAAGAAATATTTATGTACATAATAATAATATTTT [XGTACX_site4693] | 8.63 ± 0.44 |
| AATATAGATACATATACACACACACCCATACATATA [CACACA_site9137] | 9.98 ± 0.24 |
| CAATTAAATATATGAACACACATGTGAACTTTCTAT [CACACA_site3977] | 9.06 ± 0.35 |
| AAATACCTGATATATACACACTATGTTTTTCTTTTT [CACACA_site6680] | 9.01 ± 0.52 |

| Sequence | gcPBM binding intensity (ln) |
| --- | --- |
| TATTAAATTATATAGACACACATTATATATATATAT [CACACA_site4345] | 8.99 ± 0.18 |
| ATAATTATATAAATATATATAATATATATATGAAAA [XGTACX_negctrl_site357] | 8.58 ± 0.58 |
| AAAATGGGTTAGCACATACACACCAATATATTATAT [CACACA_site3082] | 9.08 ± 0.42 |
| AAGAAAAACATTACGTGTACCAAAAGGCCTGTCAAC [XGTACX_site267] | 9.13 ± 0.39 |
| GTAACAAATAAAATAACACACATGTCGAAATGTATG [CACACA_site2971] | 9.3 ± 0.48 |
| CACATACATATATACACACACAAAATAATAAAATAA [CACACA_site2308] | 9.54 ± 0.33 |
| AAAATTATATTTTATAGAAATTTAAATAAATATATA [GTGCAC_negctrl_site199] | 8.14 ± 0.49 |
| TTTTTAAAAATAACAGAAAAGAATTACAGATTTTTT [XGTACX_negctrl_site472] | 8.22 ± 0.48 |
| TTTTCTTGATTTTGTAGTACATTTTTACGATATTTT [XGTACX_site63] | 8.84 ± 0.5 |
| ATGTAAATTATTATTCTATTGTTATATACACAATAT [XGTACX_negctrl_site332] | 8.9 ± 0.27 |
| ATATAGTTCGTTTATACACACATGATAAGATATTTA [CACACA_site1947] | 8.93 ± 0.36 |
| AAATCACTTTTTAAGTGTACTTGGTCTTTCTCATTT [XGTACX_site7221] | 8.76 ± 0.53 |
| TTTTTTACATCCATAAAACTTTTTCTCTTTTAAAAT [CACACA_negctrl_site1745] | 8.23 ± 0.36 |
| AGAGAGAAAGGTATAACATGCGATAAATTTTAGAAG [TGCATGCA_site37] | 8.88 ± 0.59 |
| TGTATTAATATGGTAATACACACTAATATACTTTTG [CACACA_site1610] | 8.81 ± 0.42 |
| AACATAATAAAAATGGATATAATTCAAAGTTTGTAA [TGCATGCA_negctrl_site529] | 8.61 ± 0.55 |
| TGTTATTCGACATATACACACAAATAACAATTTAAA [CACACA_site5076] | 8.88 ± 0.36 |
| AAAAAATTGAAGGAGTGTACATTTATACTTTATTTT [XGTACX_site8623] | 8.71 ± 0.39 |

Reference: the supplement of paper PMC11417369
